# PMC12136788
# This is one part of the list.
# T1: UNK ZnF1-3 (human, UniProt Q9C0B0 31-174)
# T1 sequence: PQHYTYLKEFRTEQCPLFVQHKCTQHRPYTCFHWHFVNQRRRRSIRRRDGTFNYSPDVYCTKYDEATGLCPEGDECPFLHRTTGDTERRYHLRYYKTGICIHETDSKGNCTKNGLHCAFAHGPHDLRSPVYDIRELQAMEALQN
# B1: 150667170_150667290_129_CDS_ENSG00000143457_ENST00000271732|human|control|control (ssRNA)
# RNA: GGGAGUUCUACAGUCCGACGAUCAAGAGUAAGGCGGAUAUCCUUAGAGUCUCCAGAAUCUUCAUUGUCUGGACUUUUCUCCCAAUUACUGUCUUCCUCACUUUCCAUCUUCUUUUCAGAGUUCUUGCUUAUUUCAGUGCGACGCAACAGAGGAUUGAGCAUCA
# B2: chr2:183792894:183792895:-_ENSG00000061676_ENST00000360982|hu_mus|FALSE|FALSE (ssRNA)
# RNA: GGGAGUUCUACAGUCCGACGAUCUGCAAGCGCCAGGAAUUCCUUAAGUCGGUCUUCAAUACUUCCUUUGUGAAUUGUAAACAAAGCUGCAGCAAUCUGGUUGAUGGCUUUGGCCAAACAAUGUAUAUUGUUGCAGUGUCCUUCCAACAGAGGAUUGAGCAUCA
# B3: chr17:35975056:35975057:-_ENSMUSG00000001525_ENSMUST00000001566|mus_mus|FALSE|FALSE (ssRNA)
# RNA: GGGAGUUCUACAGUCCGACGAUCCUACGGUUUACUGAAAUAAUUGUUUUUGAUGGUUCCAAUGUAGGUACCGAACAAGAAAGAAAAUUAAGGUUUUUGGGGUUUUUUUCUUCUGGGCCGGUCUCAGACUGAAAGGAUGGACCGCAACAGAGGAUUGAGCAUCA
# B4: chr11:48615247:48615248:+_ENSMUSG00000020372_ENSMUST00000020640|perfect_dup|FALSE|FALSE (ssRNA)
# RNA: GGGAGUUCUACAGUCCGACGAUCUCCAUCCCAGGAGCCUGAGAGGGCAAACUGGCCAUCUGAGGAGAUAACCACAUCACUAACAAAGUGGGAGUGACCCCGCAGAGCACGCUGUGGAAUUCCAUAGUUGGUCUCAUCCCUGGUCAACAGAGGAUUGAGCAUCA
# B5: chr9:21333030:21333031:-_ENSG00000198642_ENST00000537938|hu_hu|FALSE|FALSE (ssRNA)
# RNA: GGGAGUUCUACAGUCCGACGAUCAAGGGGAAGUAUUAGAUCACCCAUGACGUACUGCAAAGGUGUUACACCUUAGACCUAAGAAUGAUCUGAAGGUGCUGAAAGAGGUGAUUCUCUAGAAGGUGACCCAGGGUUUUCUUCAGGCAACAGAGGAUUGAGCAUCA
# B6: chr17:55916980:55916981:-_ENSG00000181610_ENST00000313608|hu_hu|motif|central (ssRNA)
# RNA: GGGAGUUCUACAGUCCGACGAUCUCACAUAACUGCUUCUGUCAAACCAUGAUACUGAGCUUUGUGACAACCCAGAAAUAACGGAGAGAAGGCAAACAUAAUACCUUAGAGAUCAAGAAACAUUUACACAGUUCAACUGUUUAACAACAGAGGAUUGAGCAUCA
# B7: chr5:37680062:37680063:+_ENSMUSG00000029121_ENSMUST00000031004|mus_hu|mus_mus_mus_hu_False|18_38 (ssRNA)
# RNA: GGGAGUUCUACAGUCCGACGAUCUUUGGGUGUAGCUGGUACCUCGUACACAGGACCGUCAUACAUGCCCCUGGAAACCCCUUGCAAUCCAAAAACCUUGCUUCUGAUUUUGACGCGCUGGUAGAGAUGCUCCGGGAACGCCUUCAACAGAGGAUUGAGCAUCA
# B8: chr7:65705475:65705476:+_ENSG00000169902_ENST00000304842|hu_hu|hu_hu_hu_mus_True|48_108 (ssRNA)
# RNA: GGGAGUUCUACAGUCCGACGAUCUCUAUCCGGUGAUGGCACUCCAUGGCAUGCUGGCCCAGGUAAAACACGGUCACAGAACUAAUCACCAGACAUGCCAAGAGUAAGUUCUGCUUCAGCUUCCCAACCAUCUUGAUGUGGUUACAACAGAGGAUUGAGCAUCA
# B9: chr1:39494447:39494448:+_ENSG00000168653_ENST00000372967|hu_mus|hu_hu_hu_mus_False|58_58 (ssRNA)
# RNA: GGGAGUUCUACAGUCCGACGAUCGCACCGAGCGGCGUUCUUAUAGGGCUGUUCUGCGCUUAGGAACAUAAAGUGCCGAUCUAUGUUGAUGCCCAGCUUUUUCUGUAUGUCAAGGAAAGGCAUGGCUCUGCAGUGCCCUUGUCACAACAGAGGAUUGAGCAUCA
# B10: chr4:141471443:141471444:+_ENSG00000179387_ENST00000323570|hu_hu|motif|central (ssRNA)
# RNA: GGGAGUUCUACAGUCCGACGAUCAAGUGCUACAUUACAAUCCAGUAAAAGUCCUUUAAUCUUUUCAUGAAACUUCUCUCGGUACAAAUUGAAAUACAUAAUGCUUUCUGGUUCUUCUUCAAACCAAAACUUGUCAAAUUCAUACAACAGAGGAUUGAGCAUCA
# B11: chr14:78183846:78183847:+_ENSG00000119705_ENST00000557342|hu_hu|hu_hu_hu_mus_False|8_68 (ssRNA)
# RNA: GGGAGUUCUACAGUCCGACGAUCUCUCAGAAAUCUUUCUUCAUCAGAUGUUUGAGCUCCGUGCAAAAGUUUUGGCCUUUGAGCUUGAACGUGGAUCUAUGGGAGGGAAAGCACUGUCAGAAAAGGUUGUAGUGCAUUUAAAGACAACAGAGGAUUGAGCAUCA
# B12: chr11:77336104:77336105:-_ENSG00000074201_ENST00000525064|hu_mus|hu_hu_hu_mus_False|58_58 (ssRNA)
# RNA: GGGAGUUCUACAGUCCGACGAUCCUCACACAUUGCUGUGAACAUCGCCUCCAAUGCUGACUUAUCACUGGGCACAAAUCUAAAUUCAGAAAUGGGUUCAACAUCAUCAUUGUCUUCCUCAUCUUCAUCAGAGAGAGGUUCUUUCAACAGAGGAUUGAGCAUCA
# B13: 74007183_74007383_934_CDS_ENSMUSG00000034863_ENSMUST00000093450|mouse|control|control (ssRNA)
# RNA: GGGAGUUCUACAGUCCGACGAUCAGGAUAAACCAUUGCCGAUGUGUAGAAGCCCAGCCAGGCAAAAUACAUGGCAAUCUUCACCCCAAAAUAGUCACAGAUAUCAUCUAAAGGCUGGUUUUCACACACGGCCUGCACCCAGGACAACAGAGGAUUGAGCAUCA
# B14: chr8:106942660:106942661:-_ENSMUSG00000035770_ENSMUST00000041769|mus_hu|FALSE|FALSE (ssRNA)
# RNA: GGGAGUUCUACAGUCCGACGAUCAUUAAAAUUUAAAAUUAUACCAUAUUCCUCUUCGGCAUGUGCCUUUCCAGGAAUUCUUGUUUCUGAGGUCACUCAUUUUACUCCCGGGGACUAAGCGACCCCACCUUUAGUGAGGCCACACAACAGAGGAUUGAGCAUCA
# B15: chr16:94664741:94664742:+_ENSMUSG00000040785_ENSMUST00000117648|mus_hu|mus_mus_mus_hu_False|38_58 (ssRNA)
# RNA: GGGAGUUCUACAGUCCGACGAUCUGGUACUGAUCUUGGUAGCUGAUAUUCAGGAGAAAGGCUGGCCAAGGGUGUAUAAAUGCUAGUGUACUGGGGCAGGCUAGGUAACACGUUUAUGUAUGCUGGCGGUGUCUGGGUGAUAUCCAACAGAGGAUUGAGCAUCA
# B16: 13967083_13969438_1710_CDS_ENSMUSG00000068036_ENSMUST00000139666|mouse|control|control (ssRNA)
# RNA: GGGAGUUCUACAGUCCGACGAUCUGCCGGCAAUGCUGUCCCACUGUGGACAUCUCCUCCCAAUUCAAAGGUUGUCUCCUGAACAGCUCCAGGUUUAUGUCUUGGGCCCUUGACCAUCAGGCCUCCAUCCACAGAUCUCUUGGACAACAGAGGAUUGAGCAUCA
# B17: 128802558_128804910_1938_CDS_ENSMUSG00000063317_ENSMUST00000046929|mouse|control|control (ssRNA)
# RNA: GGGAGUUCUACAGUCCGACGAUCAGGUGUCAUGUCCAGGCCAGUCAAGGGGAACUUGACCAUAUUCUGAAGUUUCAUACGCCUGUCUCCUUCCUGGCGGAAUCUCUUGAGGUGUAUAAUAAGCACAUCAGGCAGAGUCCACAGCAACAGAGGAUUGAGCAUCA
# B18: chr12:110720550:110720551:+_ENSG00000174437_ENST00000539276|hu_hu|motif|central (ssRNA)
# RNA: GGGAGUUCUACAGUCCGACGAUCUUCUUCAAACCAAGCCAAAACAAAAGAUAUACAUGCUGCCAGUAAUAAAAUCCGGACGGGCAAGUCUUCAAACUGCUCAAUCACAAGUUCCAGCAAGGUUUUUCCUUCUUCAGCCGGUAACAACAGAGGAUUGAGCAUCA
# B19: 32307255_32307489_2825_CDS_ENSG00000170759_ENST00000302418|human|control|control (ssRNA)
# RNA: GGGAGUUCUACAGUCCGACGAUCUGUAGCCAGGUCCUGAACAAAGAGUUUGCGCAGGUUGUGUAAAGUCUGAAGUUCUUUUGCCACUGUCUCUUCCAAACCCUUCAAGUCUUGUCUUGCUUGUUCUCGUCUAUCUUGCAUAACCAACAGAGGAUUGAGCAUCA
# B20: chr8:63386198:63386199:+_ENSMUSG00000038005_ENSMUST00000037190|mus_mus|motif|central (ssRNA)
# RNA: GGGAGUUCUACAGUCCGACGAUCGGUCCCACUUCAAAGCACUGCACUAACAGGGCAGCUUGUUCAUCCUGCAAGCUGGUCGGUGUUCUCUUCACUUCUGCUUGCCAGAUGAUCUUCAAUAAUUUUUGCAAACAGAUCCCUCUUCAACAGAGGAUUGAGCAUCA
# B21: 67951522_67951642_1118_3pUTR_ENSMUSG00000079614_ENSMUST00000025421|mouse|control|control (ssRNA)
# RNA: GGGAGUUCUACAGUCCGACGAUCAUUUUGAAGAUUUGGAAUAUUUGAGCUCAGUGAAGGAUUUGAGUUUCCCAGCUGAGAACUCCCAUUUACUGGGCUCCCGUUACCUUUCAAAAUACCAGUACACUUCCAAUUGUCCAUGUACAACAGAGGAUUGAGCAUCA
# B22: chr5:130458811:130458812:+_ENSMUSG00000066735_ENSMUST00000051758|mus_hu|FALSE|FALSE (ssRNA)
# RNA: GGGAGUUCUACAGUCCGACGAUCUUUUCACUAUCUCCUCAGUCAACGCUGAGCUGACAGUUCUUCAGUGCUACACUCCAACUAAACUGUACAGUAAGUUCUGCAGAAAUGGAUCUAAUAUUUCUACCUUUAUUUACAAAUAUCCAACAGAGGAUUGAGCAUCA
# Biological target: T1, UNK ZnF1-3
# Test: nsRBNS (natural sequence RNA bind-n-seq); RBNS binding buffer (assumed for nsRBNS): 25 mM Tris pH 7.5, 150 mM KCl, 3 mM MgCl2, 0.01% Triton X-100, 500 ug/ml BSA, 20 U/ml SUPERase-In, 4 C; UNK is unkempt and MSI1 is Musashi-1; names of the RNAs are library labels; protein concentration not given here; high values mean tight binding
row,Binder,binding signal
1,B1,0.448 enrichment R
2,B2,0.745 enrichment R
3,B3,0.739 enrichment R
4,B4,1.14 enrichment R
5,B5,0.957 enrichment R
6,B6,0.952 enrichment R
7,B7,0.847 enrichment R
8,B8,0.488 enrichment R
9,B9,0.592 enrichment R
10,B10,0.932 enrichment R
11,B11,1.69 enrichment R
12,B12,0.953 enrichment R
13,B13,0.687 enrichment R
14,B14,0.948 enrichment R
15,B15,0.948 enrichment R
16,B16,0.681 enrichment R
17,B17,0.607 enrichment R
18,B18,1.2 enrichment R
19,B19,0.738 enrichment R
20,B20,0.746 enrichment R
21,B21,0.349 enrichment R
22,B22,0.516 enrichment R
